Experimental data reported in PMC11952801.
Results are given in words; binding and its absence hold for the method and conditions named. Binding seen in cells or lysates may run through a third protein. Some binding calls cover weakened binding; strength is not graded here. For some assays here: Sequences can lack the tags named with a protein.

Tests used:
[1] = target: T1, HA-tagged P2K1 (Arabidopsis thaliana) (UniProt Q9LSR8); test: co-IP; HA-tagged P2K1 coexpressed with Myc-tagged ILK4 or ILK5 in N. benthamiana leaves, with and without exogenous ATP; total protein extract (50 mM Tris-HCl pH 7.5, 150 mM NaCl, 0.5% Triton X-100); anti-HA agarose beads overnight at 4 °C; blots with anti-HA and anti-Myc
T1 sequence: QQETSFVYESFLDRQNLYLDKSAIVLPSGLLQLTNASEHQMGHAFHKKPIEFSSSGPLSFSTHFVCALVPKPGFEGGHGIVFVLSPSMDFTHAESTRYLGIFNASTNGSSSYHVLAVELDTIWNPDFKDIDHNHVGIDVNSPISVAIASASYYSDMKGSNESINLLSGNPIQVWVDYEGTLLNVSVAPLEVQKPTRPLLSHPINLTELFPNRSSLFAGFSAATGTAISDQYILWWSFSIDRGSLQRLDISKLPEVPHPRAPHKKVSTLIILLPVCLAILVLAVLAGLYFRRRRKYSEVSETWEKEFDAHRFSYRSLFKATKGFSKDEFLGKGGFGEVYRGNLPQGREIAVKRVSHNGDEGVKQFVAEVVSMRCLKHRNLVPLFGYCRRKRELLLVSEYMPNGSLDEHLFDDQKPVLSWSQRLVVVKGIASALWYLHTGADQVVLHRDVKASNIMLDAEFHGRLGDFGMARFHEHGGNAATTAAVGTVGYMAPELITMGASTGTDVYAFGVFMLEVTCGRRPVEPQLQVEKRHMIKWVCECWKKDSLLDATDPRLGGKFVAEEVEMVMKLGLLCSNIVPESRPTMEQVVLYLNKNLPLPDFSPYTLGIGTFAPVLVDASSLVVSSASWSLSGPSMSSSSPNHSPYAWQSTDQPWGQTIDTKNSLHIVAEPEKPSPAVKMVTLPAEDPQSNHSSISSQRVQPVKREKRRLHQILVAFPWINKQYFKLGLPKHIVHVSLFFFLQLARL

[2] = target: T2, P2K1-nLUC (Arabidopsis thaliana) (UniProt Q9LSR8); test: split reporter; split-luciferase complementation imaging (LCI); nLUC and cLUC fusions driven by the CaMV 35S promoter, co-infiltrated into 4-week-old N. benthamiana leaves; 3 days at 28 °C; 5 mM D-luciferin sprayed; luminescence by CCD camera; also with added ATP
T2 sequence: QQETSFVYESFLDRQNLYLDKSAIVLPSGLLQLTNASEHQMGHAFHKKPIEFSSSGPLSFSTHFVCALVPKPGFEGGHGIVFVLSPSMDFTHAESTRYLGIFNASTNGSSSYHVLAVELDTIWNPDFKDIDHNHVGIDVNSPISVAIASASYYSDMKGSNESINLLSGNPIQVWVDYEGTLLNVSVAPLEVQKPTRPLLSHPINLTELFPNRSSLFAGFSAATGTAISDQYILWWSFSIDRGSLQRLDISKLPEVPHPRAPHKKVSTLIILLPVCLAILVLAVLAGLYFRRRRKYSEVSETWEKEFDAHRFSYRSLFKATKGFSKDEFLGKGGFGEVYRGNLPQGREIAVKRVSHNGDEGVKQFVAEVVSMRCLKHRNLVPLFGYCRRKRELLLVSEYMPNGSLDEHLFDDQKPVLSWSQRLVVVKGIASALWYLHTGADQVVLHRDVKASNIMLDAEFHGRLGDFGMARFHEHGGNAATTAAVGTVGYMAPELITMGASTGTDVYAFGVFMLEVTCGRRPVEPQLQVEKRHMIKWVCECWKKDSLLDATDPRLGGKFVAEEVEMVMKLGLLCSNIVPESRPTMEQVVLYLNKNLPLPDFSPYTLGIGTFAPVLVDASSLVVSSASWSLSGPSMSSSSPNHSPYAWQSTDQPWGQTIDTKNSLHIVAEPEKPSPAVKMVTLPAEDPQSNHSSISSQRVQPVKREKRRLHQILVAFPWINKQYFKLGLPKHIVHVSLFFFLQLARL

[3] = target: T3, P2K1-nYFP (Arabidopsis thaliana) (UniProt Q9LSR8); test: split reporter; BiFC; nYFP and cYFP fusions in Arabidopsis protoplasts (PEG-mediated transformation), 21 °C for 24 h in the dark; YFP fluorescence by microscopy, FM4-64 as plasma membrane marker
T3 sequence: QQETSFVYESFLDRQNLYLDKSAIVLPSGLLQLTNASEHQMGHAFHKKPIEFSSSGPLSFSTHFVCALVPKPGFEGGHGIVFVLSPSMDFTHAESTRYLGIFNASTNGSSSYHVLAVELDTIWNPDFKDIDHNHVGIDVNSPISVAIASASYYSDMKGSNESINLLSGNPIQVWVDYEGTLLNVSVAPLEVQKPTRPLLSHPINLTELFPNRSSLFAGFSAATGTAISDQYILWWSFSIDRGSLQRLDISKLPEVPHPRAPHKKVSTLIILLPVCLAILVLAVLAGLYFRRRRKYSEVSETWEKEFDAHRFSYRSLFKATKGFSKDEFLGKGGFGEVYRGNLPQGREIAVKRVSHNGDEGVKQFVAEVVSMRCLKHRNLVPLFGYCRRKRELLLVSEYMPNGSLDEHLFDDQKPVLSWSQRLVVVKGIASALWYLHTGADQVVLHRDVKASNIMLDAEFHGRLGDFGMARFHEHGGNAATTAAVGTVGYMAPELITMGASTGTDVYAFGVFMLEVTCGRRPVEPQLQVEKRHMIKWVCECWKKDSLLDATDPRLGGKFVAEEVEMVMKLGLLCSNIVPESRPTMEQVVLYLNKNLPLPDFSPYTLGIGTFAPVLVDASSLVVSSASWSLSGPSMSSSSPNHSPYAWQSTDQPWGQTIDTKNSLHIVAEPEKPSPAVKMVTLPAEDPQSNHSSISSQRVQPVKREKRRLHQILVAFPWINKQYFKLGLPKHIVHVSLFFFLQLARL

[4] = target: T4, P2K1 (construct of the validation tests listed in Table 1 not told) (Arabidopsis thaliana) (UniProt Q9LSR8); test: split reporter; LCI assay as listed in Table 1 for candidates of the 2k KiC screen; no reference and no further description given
T4 sequence: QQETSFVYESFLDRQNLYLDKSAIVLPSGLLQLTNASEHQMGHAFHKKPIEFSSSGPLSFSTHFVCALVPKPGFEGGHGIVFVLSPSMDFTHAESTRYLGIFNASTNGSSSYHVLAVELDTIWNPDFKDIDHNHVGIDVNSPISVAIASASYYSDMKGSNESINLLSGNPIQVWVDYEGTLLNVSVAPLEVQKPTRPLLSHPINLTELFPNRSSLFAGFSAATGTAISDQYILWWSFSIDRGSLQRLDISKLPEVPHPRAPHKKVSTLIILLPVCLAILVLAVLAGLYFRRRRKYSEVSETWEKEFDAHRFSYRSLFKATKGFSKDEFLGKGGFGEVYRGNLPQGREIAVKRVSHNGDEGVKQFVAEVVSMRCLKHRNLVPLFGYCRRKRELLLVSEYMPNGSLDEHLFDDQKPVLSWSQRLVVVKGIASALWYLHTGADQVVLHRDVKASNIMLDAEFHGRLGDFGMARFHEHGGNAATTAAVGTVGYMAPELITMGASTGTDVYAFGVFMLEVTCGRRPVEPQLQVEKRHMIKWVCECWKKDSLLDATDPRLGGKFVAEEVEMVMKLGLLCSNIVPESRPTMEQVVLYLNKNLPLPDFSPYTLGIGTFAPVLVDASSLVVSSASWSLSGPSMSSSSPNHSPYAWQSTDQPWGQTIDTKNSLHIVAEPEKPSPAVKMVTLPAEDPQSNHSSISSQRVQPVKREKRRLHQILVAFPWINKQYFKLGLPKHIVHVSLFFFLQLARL

B1: ILK5-Myc (enzyme, UniProt Q93Z30 1-459)
chain: MEEDYQQPRFTIGRQSSMAPEKIPEPSVHSEEEVFEDGEEIDGGVRLMYLANEGDIEGIKELIDSGIDANYRDIDDRTALHVAACQGLKDVVELLLDRKAEVDPKDRWGSTPFADAIFYKNIDVIKILEIHGAKHPMAPMHVKTAREVPEYEINPSELDFTQSKEITKGTYCMAMWRGIQVAVKKLDDEVLSDDDQVRKFHDELALLQRLRHPNIVQFLGAVTQSNPMMIVTEYLPRGDLRELLKRKGQLKPATAVRYALDIARGMSYLHEIKGDPIIHRDLEPSNILRDDSGHLKVADFGVSKLVTVKEDKPFTCQDISCRYIAPEVFTSEEYDTKADVFSFALIVQEMIEGRMPFAEKEDSEASEAYAGKHRPLFKAPSKNYPHGLKTLIEECWHEKPAKRPTFREIIKRLESILHHMGHKRQWRMRPLTCFQNFEHKKKHNWDLSSHDGSSSGSHL
Question: For B1, which binding [1] is on record?
Answer: binds

B2: ATL6 (split-luciferase fusion) (protein, UniProt Q8RXX9 30-398)
chain: QSQPGPTNQPYNYGRLSPAMAVIVVILIAALFFMGFFSIYFRHCSGVPDAGVSPAGGARSRATVNAAARGLDVSVVETFPTFLYSDVKTQKLGKGELECAICLNEFEDDETLRLLPKCDHVFHPHCIDAWLEAHVTCPVCRANLAEQVAEGESVEPGGTEPDLELQQVVVNPEPVVTAPVPEQLVTSEVDSRRLPGVPVDLKRVKFSRSHTTGHSVVQPGECTERFTLRLPEDVRKRIMKDWKLNRTNSLLVLPRGGSSRRGKPIDRSRARSDRWLFRKTPSFLWRSRDDGSIRLGATGSVRASAVPNSTGSDSVRAGDRWAFLRNASFLWRNSSVHVPRGGVNKDGEGTSVKSTGASGSTSGSVRLPV
Question: How did the binding [2] turn out when B2 was run?
Answer: no binding

B3: MKK3-cYFP (enzyme, UniProt O80396 1-520)
chain: MAALEELKKKLSPLFDAEKGFSSSSSLDPNDSYLLSDGGTVNLLSRSYGVYNFNELGLQKCTSSHVDESESSETTYQCASHEMRVFGAIGSGASSVVQRAIHIPNHRILALKKINIFEREKRQQLLTEIRTLCEAPCHEGLVDFHGAFYSPDSGQISIALEYMNGGSLADILKVTKKIPEPVLSSLFHKLLQGLSYLHGVRHLVHRDIKPANLLINLKGEPKITDFGISAGLENSMAMCATFVGTVTYMSPERIRNDSYSYPADIWSLGLALFECGTGEFPYIANEGPVNLMLQILDDPSPTPPKQEFSPEFCSFIDACLQKDPDARPTADQLLSHPFITKHEKERVDLATFVQSIFDPTQRLKDLADMLTIHYYSLFDGFDDLWHHAKSLYTETSVFSFSGKHNTGSTEIFSALSDIRNTLTGDLPSEKLVHVVEKLHCKPCGSGGVIIRAVGSFIVGNQFLICGDGVQAEGLPSFKDLGFDVASRRVGRFQEQFVVESGDLIGKYFLAKQELYITNLD
Question: B3 was tested. Which binding [3] did it give?
Answer: no binding

B4: Embryonic factor1 (At2g38280) (protein, UniProt O80452 1-839)
chain: MEPNIYQLALAALFGASFVAVSGFFMHFKALNLVLERGKERKENPDGDEPQNPTLVRRRSQVRRKVNDQYGRSPASLPDATPFTDGGGGGGGDTGRSNGHVYVDEIPPGLPRLHTPSEGRASVHGASSIRKTGSFVRPISPKSPVASASAFESVEESDDDDNLTNSEGLDASYLQANGDNEMPADANEEQISMAASSMIRSHSVSGDLHGVQPDPIAADILRKEPEQETFVRLNVPLEVPTSDEVEAYKCLQECLELRKRYVFQETVAPWEKEVISDPSTPKPNTEPFAHYPQGKSDHCFEMQDGVVHVFANKDAKEDLFPVADATAFFTDLHHVLKVIAAGNIRTLCHRRLVLLEQKFNLHLMLNADKEFLAQKSAPHRDFYNVRKVDTHVHHSACMNQKHLLRFIKSKLRKEPDEVVIFRDGTYLTLREVFESLDLTGYDLNVDLLDVHADKSTFHRFDKFNLKYNPCGQSRLREIFLKQDNLIQGRFLGEITKQVFSDLEASKYQMAEYRISIYGRKMSEWDQLASWIVNNDLYSENVVWLIQLPRLYNIYKDMGIVTSFQNILDNIFIPLFEATVDPDSHPQLHVFLKQVVGFDLVDDESKPERRPTKHMPTPAQWTNAFNPAFSYYVYYCYANLYVLNKLRESKGMTTITLRPHSGEAGDIDHLAATFLTCHSIAHGINLRKSPVLQYLYYLAQIGLAMSPLSNNSLFLDYHRNPFPVFFLRGLNVSLSTDDPLQIHLTKEPLVEEYSIAASVWKLSACDLCEIARNSVYQSGFSHALKSHWIGKDYYKRGPDGNDIHKTNVPHIRVEFRDTIWKEEMQQVYLGKAVISDEVVP
Question: With B4 as the binder, how does the binding [4] read?
Answer: no binding

B5: ATHAK5 (At4g13420) (protein, UniProt Q9M7K4 1-785)
chain: MDGEEHQIDGDEVNNHENKLNEKKKSWGKLYRPDSFIIEAGQTPTNTGRRSLMSWRTTMSLAFQSLGVVYGDIGTSPLYVYASTFTDGINDKDDVVGVLSLIIYTITLVALLKYVFIVLQANDNGEGGTFALYSLICRYAKMGLIPNQEPEDVELSNYTLELPTTQLRRAHMIKEKLENSKFAKIILFLVTIMGTSMVIGDGILTPSISVLSAVSGIKSLGQNTVVGVSVAILIVLFAFQRFGTDKVGFSFAPIILVWFTFLIGIGLFNLFKHDITVLKALNPLYIIYYFRRTGRQGWISLGGVFLCITGTEAMFADLGHFSVRAVQISFSCVAYPALVTIYCGQAAYLTKHTYNVSNTFYDSIPDPLYWPTFVVAVAASIIASQAMISGAFSVISQSLRMGCFPRVKVVHTSAKYEGQVYIPEINYLLMLACIAVTLAFRTTEKIGHAYGIAVVTVMVITTLMVTLIMLVIWKTNIVWIAIFLVVFGSIEMLYLSSVMYKFTSGGYLPLTITVVLMAMMAIWQYVHVLKYRYELREKISRENAIQMATSPDVNRVPGIGLFYTELVNGITPLFSHYISNLSSVHSVFVLISIKTLPVNRVTSSERFFFRYVGPKDSGMFRCVVRYGYKEDIEEPDEFERHFVYYLKEFIHHEHFMSGGGGEVDETDKEEEPNAETTVVPSSNYVPSSGRIGSAHSSSSDKIRSGRVVQVQSVEDQTELVEKAREKGMVYLMGETEITAEKESSLFKKFIVNHAYNFLKKNCREGDKALAIPRSKLLKVGMTYEL
Question: With B5 as the binder, how does the binding [4] read?
Answer: no binding
